Hit rate of the full screen: of about 380,000 compounds, about 170 (0.045%) were called active. Inconclusive results, whose numbers are uncertain, are shown with a selection of clear calls. Calls come from the whole dose curve; as a rule, active = well fitted inhibition curve with a large enough effect; inconclusive = small, poorly fitted or top-dose-only effect; inactive = no such curve, though single readings can be large or run the other way. No potency is given beside an inconclusive call; the fits are too rough. *1 amine or outer side, *2 acyl side, *3 side chain or, on linkers, in order; H or OH if unused. Where a SMILES comes first, the peptide text is derived from it. Bridges are numbered along the chain shown (N, C = ends). [ ]: non-standard residue; d: D form. ξ: configuration not given here. hSer(Ph(2-I,4-NO2,6-CO)) = O=C([C@H](CCOc1c(I)cc([N+](=O)[O-])cc1C(=O)[*:3])N[*:1])[*:2]; ξD = NC(CC(=O)O)C(=O)O
biological target: Phosphoglycerate kinase, glycosomal (Trypanosoma brucei brucei) (UniProt P07378); experiment: qHTS Assay to Find Inhibitors of Phosphoglycerate Kinase; conditions: PGK/GAPDH coupled, Kinase-Glo luminescence, 60 min; series mostly up to 57.5 µM; note: nearly all actives have a fitted effect of over 60% in size
Outline: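 Recombinant glycosomal PGK reaction used 1,3-bisphosphoglycerate generated in-well by GAPDH (100nM final) in 100mM TEA pH 7.6, 5mM MgCl2, 0.01% Tween-20. After 60 minutes at room temperature, ATP was read by Kinase-Glo Plus luminescence end-point.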
Potency is the fitted concentration of half-maximal effect; tags give direction and shape of the fitted curve.

**Q.** `CC1(C)OC(c2ccccc2)=C/C(=C/C=C2C(=O)NC(=S)NC2=O)O1` was tested. Which Potency did it give?
**A.** Its Potency is inconclusive [inhibitor, partial curve, poor fit].

**Q.** `COc1ccc(N2C(=O)NC(=O)/C(=C/c3ccc([N+](=O)[O-])s3)C2=O)cc1` was tested. Which Potency did it give?
**A.** The Potency was inconclusive [inhibitor, single point].

**Q.** With `O=C(O)CC1OCC=C2CN3CCC45C6=CC(=O)C(=O)C([N+](=O)[O-])=C6NC4C1C2CC35` (stereo not given) as the compound, how does the Potency read?
**A.** The Potency was inconclusive [inhibitor, single point].

**Q.** How did the Potency turn out when `C[n+]1c2ccccc2nc2ccc(NCCO)cc21` was run?
**A.** Its Potency is inconclusive [inhibitor, single point].

**Q.** How did the Potency turn out when `O=C1NC(=S)NC(=O)C1=Cc1ccc2c(c1)CCN2CCCCl` was run?
**A.** Its Potency is inconclusive [inhibitor, partial curve].

**Q.** How did the Potency turn out when `O=c1c2ccccc2nc(/C=C/c2cccnc2)n1Cc1ccccc1` was run?
**A.** The Potency was inconclusive [inhibitor, single point].

**Q.** With `CC(C)N1C(=O)/C(=C/C=C/c2ccco2)C(=O)N(Cc2ccco2)C1=O` as the compound, how does the Potency read?
**A.** The Potency was inconclusive [inhibitor, single point].

**Q.** How did the Potency turn out when `Cc1ccc(NC(=O)Cn2cc(C(=O)c3ccccc3)c3ccccc32)c(C)c1` was run?
**A.** Its Potency is “inactive”.

**Q.** For `CCOc1ccc(NS(=O)(=O)c2ccc(Cl)c(N=Nc3c(O)[nH]c(=S)[nH]c3=O)c2)cc1Br`, which Potency is on record?
**A.** Its Potency is active: 22.4 µM.

**Q.** `C=C1C2C[C@H](O)C(C)(C)[C@@]2(O)[C@H](O)C[C@]23C[C@@](C)(O)[C@H](CC[C@H]12)[C@H]3OC(C)=O` (stereo not given in full) was tested. Which Potency did it give?
**A.** Its Potency is “inactive”.

**Q.** For `CCN1/C(=C\C=C\C2=[N+](CC)c3ccccc3C2(C)C)C(C)(C)c2ccccc21`, which Potency is on record?
**A.** The Potency was inconclusive [inhibitor, partial curve, poor fit].

**Q.** Which Potency does the source give for `Clc1ccc(OCC#CCN2CCCC2)cc1` here?
**A.** Its Potency is “inactive”.

**Q.** For `O=C(N/N=C\C1C(=O)NC(=S)N(c2ccccc2)C1=O)c1ccc(O)cc1` (stereo not given), which Potency is on record?
**A.** Its Potency is “inactive”.

**Q.** Which Potency does the source give for `O=C1NC(=O)N(c2ccccc2F)C(=O)/C1=C/c1ccc(Sc2nc3ccccc3[nH]2)o1` here?
**A.** Its Potency is inconclusive [inhibitor, single point].

**Q.** With `C[C@@H]1NC(=O)c2cc([N+](=O)[O-])cc(I)c2OCC[C@@H](C(=O)NC(CC(=O)O)C(N)=O)NC(=O)[C@H](CCC(=O)O)NC1=O` (stereo not given in full) (AE[hSer(Ph(2-I,4-NO2,6-CO))][ξD]-NH2; lactam N-3) as the compound, how does the Potency read?
**A.** The Potency was inconclusive [inhibitor, single point].

**Q.** Which Potency does the source give for `CCN1/C(=C/C=C/C2=[N+](CC)c3ccccc3C2(C)C)C(C)(C)c2ccccc21` here?
**A.** The Potency was inconclusive [inhibitor, partial curve].

**Q.** With `O=C1NC(=S)N(c2ccccc2)C(=O)/C1=C/c1ccco1` as the compound, how does the Potency read?
**A.** The Potency was active: 7.94 µM.

**Q.** For `COC(=O)c1ccc(COC(=O)c2ccccn2)cc1`, which Potency is on record?
**A.** The Potency was inconclusive [inhibitor, partial curve, poor fit].

**Q.** How did the Potency turn out when `Cc1ccc(N2C(=O)NC(=O)/C(=C\c3cc(C)n(-c4cc(C(=O)O)cc(C(=O)O)c4)c3C)C2=O)cc1` was run?
**A.** The Potency was inconclusive [inhibitor, partial curve, poor fit].

**Q.** `Cn1c[n+](C)cc1C(O)c1ccccc1` (stereo not given) was tested. Which Potency did it give?
**A.** The Potency was “inactive”.

**Q.** For `CN1C(=O)NC(=O)/C(=C/c2ccc([N+](=O)[O-])o2)C1=O`, which Potency is on record?
**A.** The Potency was active: 14.1 µM.

**Q.** Which Potency does the source give for `CC[n+]1c(/C=C/C=C/c2ccc(N(C)C)cc2)sc2ccccc21` here?
**A.** Its Potency is inconclusive [inhibitor, partial curve].

**Q.** With `CS(=O)(=O)c1ccc(C2=C(CNC(=O)c3cccs3)[C@H]3CC[C@@H](C2)N3Cc2ccccc2)cc1` as the compound, how does the Potency read?
**A.** The Potency was “inactive”.

**Q.** With `Cc1cc(/C=C2\C(=O)NC(=O)N(c3ccccc3)C2=O)c(C)n1-c1ccc(C(=O)O)c(Cl)c1` as the compound, how does the Potency read?
**A.** The Potency was inconclusive [inhibitor, partial curve, poor fit].

**Q.** How did the Potency turn out when `O=[N+]([O-])c1ccc(N2CCOCC2)c2c1no[n+]2[O-]` was run?
**A.** Its Potency is inconclusive [inhibitor, partial curve, poor fit].

**Q.** `O=C1CC=C2C3CC4N(CCC45c4cc(O)c(O)cc4N1C25)CC3=CCBr` (stereo not given) was tested. Which Potency did it give?
**A.** The Potency was inconclusive [inhibitor, partial curve, poor fit].

**Q.** Which Potency does the source give for `Cc1cc(/C=C2\C(=O)NC(=O)N(c3ccc(Br)cc3)C2=O)c(C)n1-c1cc(C(=O)O)cc(C(=O)O)c1` here?
**A.** The Potency was active: 14.1 µM.

**Q.** With `NC(=O)C1CCN(/C=C2\C(=O)NC(=O)N(Cc3ccco3)C2=O)CC1` as the compound, how does the Potency read?
**A.** Its Potency is inconclusive [inhibitor, single point].

**Q.** How did the Potency turn out when `O=C1NC(=O)N(c2ccccc2)C(=O)/C1=C/c1ccc([N+](=O)[O-])s1` was run?
**A.** The Potency was inconclusive [inhibitor, single point].

**Q.** Which Potency does the source give for `COc1ccc(/C=C2\C(=O)NC(=S)N(C)C2=O)cc1C` here?
**A.** Its Potency is active: 10 µM.

**Q.** For `Cc1cccc(-n2c(/C=C/c3ccc([N+](=O)[O-])o3)nc3ccccc3c2=O)c1`, which Potency is on record?
**A.** Its Potency is “inactive”.

**Q.** Which Potency does the source give for `Cc1ccc(C(=O)n2c(N)nc3ccccc32)cc1` here?
**A.** Its Potency is inconclusive [inhibitor, single point].

**Q.** For `CNC(=O)Oc1ccc(-c2cn3cc(C)ccc3n2)cc1`, which Potency is on record?
**A.** The Potency was inconclusive [inhibitor, single point].

**Q.** How did the Potency turn out when `COc1ccc(C[C@H]2NC[C@H](O)[C@H]2OC(C)=O)cc1` was run?
**A.** The Potency was “inactive”.

**Q.** How did the Potency turn out when `O=C1NC(=O)N(Cc2ccccc2)C(=O)/C1=C\N1CCCc2ccccc21` was run?
**A.** Its Potency is “inactive”.

**Q.** `COc1ccc(/C=C2/C(=O)N(Cc3ccco3)C(=O)N(C(C)C)C2=O)cc1` was tested. Which Potency did it give?
**A.** The Potency was inconclusive [inhibitor, partial curve].

**Q.** With `C=C1C(=O)O[C@@H]2C[C@@H](C)[C@@H]3C=CC(=O)[C@@]3(C)[C@@H](OC(=O)CC(=O)O[C@H]3[C@@H]4C(=C)C(=O)O[C@@H]4C[C@@H](C)[C@@H]4C=CC(=O)[C@]43C)[C@H]12` as the compound, how does the Potency read?
**A.** The Potency was inconclusive [inhibitor, single point].

**Q.** `CCOCCCn1c(N)c(C(=O)Nc2sc3c(c2C(=O)OC)CCCC3)c2nc3ccccc3nc21` was tested. Which Potency did it give?
**A.** The Potency was “inactive”.

**Q.** `CCN1CCN(c2ccc(NC(C)=O)cc2Cl)CC1` was tested. Which Potency did it give?
**A.** The Potency was “inactive”.

**Q.** Which Potency does the source give for `O=C1C(=O)c2ccccc2-c2ccccc21` here?
**A.** Its Potency is inconclusive [inhibitor, partial curve, poor fit].

**Q.** With `O=C1NC(=S)NC(=O)C1=Cc1cccn1-c1ccc(O)cc1` as the compound, how does the Potency read?
**A.** Its Potency is inconclusive [inhibitor, partial curve, poor fit].

**Q.** `O=C(c1cc(C(=O)NCc2ccccc2)c(=O)n(Cc2ccccc2)c1)c1cc(Br)ccc1O` was tested. Which Potency did it give?
**A.** The Potency was “inactive”.

**Q.** `Cc1nc2c(=O)n(C)c(=O)nc-2n(C)n1` was tested. Which Potency did it give?
**A.** Its Potency is inconclusive [inhibitor, full curve].

**Q.** `CN(C)C(=O)Oc1ccc(-c2cn3cc(Cl)ccc3n2)cc1` was tested. Which Potency did it give?
**A.** Its Potency is inconclusive [inhibitor, partial curve].

**Q.** Which Potency does the source give for `O=C(C1CCC(=O)N1C1CCCCC1)N1CCC2(CC1)OCCO2` (stereo not given) here?
**A.** The Potency was inconclusive [inhibitor, single point].

— PubChem BioAssay AID602233 (National Center for Advancing Translational Sciences (NCATS), 2012)
